# Over roughly 33,000 sequences, “E-score (-0.5 to 0.5)” has its median near -0.012; the highest 2% begin near 0.27. The list shows a part of the results.
# Molecular target: T1, Vhr1 (UniProt P40522)
# T1 sequence: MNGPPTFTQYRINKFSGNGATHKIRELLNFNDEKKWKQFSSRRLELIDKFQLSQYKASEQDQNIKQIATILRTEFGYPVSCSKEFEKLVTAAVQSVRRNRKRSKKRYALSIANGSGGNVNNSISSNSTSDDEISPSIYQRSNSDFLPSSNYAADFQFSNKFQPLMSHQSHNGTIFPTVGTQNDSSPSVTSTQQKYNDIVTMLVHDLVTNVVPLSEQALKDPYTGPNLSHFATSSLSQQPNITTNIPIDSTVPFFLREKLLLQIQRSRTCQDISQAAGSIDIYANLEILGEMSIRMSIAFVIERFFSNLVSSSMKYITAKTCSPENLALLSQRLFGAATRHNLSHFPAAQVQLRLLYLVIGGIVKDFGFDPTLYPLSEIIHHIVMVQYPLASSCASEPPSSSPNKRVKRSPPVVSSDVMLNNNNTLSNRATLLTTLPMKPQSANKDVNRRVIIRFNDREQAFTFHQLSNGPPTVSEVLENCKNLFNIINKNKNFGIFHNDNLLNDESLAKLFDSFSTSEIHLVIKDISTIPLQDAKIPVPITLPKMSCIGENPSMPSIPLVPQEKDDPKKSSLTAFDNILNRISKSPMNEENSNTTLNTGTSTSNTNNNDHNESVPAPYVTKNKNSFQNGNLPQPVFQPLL
# Assay: PBM E-score (8-mer binding enrichment) (E-score (-0.5 to 0.5)); higher = stronger / more preferred TF binding; most listed sequences are background and not binding sites
# Conditions: protein concentration: 200 nM; construct: GST-full length
# Procedure, shortened: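 E-scores (a modified Wilcoxon-Mann-Whitney statistic) were assigned by the Universal PBM Analysis Suite to every ungapped eight-base word pooled with its reverse complement. The input came from universal all-10-mer Agilent arrays made double-stranded by primer extension and probed with GST-tagged yeast transcription factors at about 100-200 nM. Fluorescent anti-GST detected bound protein, and masliner normalised the scans.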
row,Sequence,PBM E-score
1,GATTTGCC,-0.0285
2,TCAACTCA,0.0654
3,GAGCCAAA,-0.0747
4,AATCAGGT,0.268
5,AAGTTCAA,-0.154
6,AATCTCCC,0.149
7,AGCTACCA,0.126
8,TAATGATA,0.224
9,GGTGCCAC,-0.254
10,AAAATGAT,0.123
11,CTTTCCCA,-0.115
12,ACGCTCTA,-0.156
13,CGCTGCGA,0.045
14,AGCGTAAC,-0.242
15,GACGAGTC,0.276
16,CCGTTACG,-0.0486
17,AAAGTTGG,0.0279
18,AATCTGCT,-0.214
19,AGGTTGCC,0.0677
20,AGGCACCT,-0.299
21,CCTGGCCC,-0.0376
22,CTCAATCA,0.33
23,ACGTAACG,-0.0436
24,CTAAGTAA,-0.184
25,AGCGCAAG,-0.0521

row,Sequence,PBM E-score
1,CTCCGTCA,-0.0351
2,AGTGGGTC,0.168
3,AATACGAA,-0.107
4,CATTTAGC,-0.12
5,GTAGAAGA,-0.118
6,CCGCCCTA,-0.029
7,GAAGAGAC,-0.0959
8,AACAGCTA,0.00268
9,CACAACCC,-0.00714
10,AGCGTGCG,0.0988
11,CCATATAA,-0.0032
12,ACGCCGAT,-0.0892
13,AGCCAACT,-0.0285
14,GAGCGTAA,-0.0505
15,GGAAGACC,-0.0913
16,AACTGATT,-0.0115
17,CACATAAG,0.0384
18,GCAAAGGC,-0.166
19,CACCGGGA,-0.0444
20,AGTATACT,-0.0127
21,ATTAGAAA,-0.212
22,AAATGTGC,0.0346
23,TGCGACCA,0.165
24,GGCTCCGA,0.116
25,CAGGGAAC,-0.0587

row,Sequence,PBM E-score
1,AAGAACCA,-0.0565
2,AATACGCT,-0.0796
3,AATTCAGT,0.0586
4,AGCCAAAG,-0.142
5,CGTGCAGA,-0.0877
6,CCGTGTGA,0.127
7,TCTCGGAA,0.0222
8,AATTAAGG,-0.247
9,CATTCGAG,-0.0634
10,AACGCAAC,0.16
11,ACTAATAT,0.255
12,ATCGGTCG,0.0274
13,GGTCTACA,0.0178
14,AAAGCTCG,-0.18
15,GTAAATGA,0.106
16,ATTCGGAC,0.156
17,GGCACCAA,0.0843
18,GATGTAGA,0.0103
19,ACATGAAA,-0.119
20,CATATGGC,0.124
21,CAGATGGC,0.0162
22,GGTCACTA,-0.0218
23,GTTGGTGA,0.191
24,ATTTGAGG,-0.161
25,AATTACAT,0.047

row,Sequence,PBM E-score
1,CGGGACAA,-0.198
2,CATTGCAG,0.161
3,CGACGGTA,-0.0689
4,AGTTGACC,0.103
5,CCAGAGAC,0.02
6,GATTTCTA,-0.0567
7,GCTAACCC,-0.0161
8,CCCAGCAA,-0.0281
9,ATAGCTAG,-0.0312
10,CGAGAGGA,-0.0532
11,GTCAAGGA,-0.0632
12,CAACGCTA,-0.125
13,CTTTGGGC,-0.0373
14,CGCAACCA,0.176
15,ACGAATGG,0.0938
16,AATGCGCT,-0.104
17,GTCGATAA,-0.0853
18,AGATGGAC,-0.0243
19,AAAGAAGT,-0.149
20,ACTGAGCA,0.00801
21,CAACTTGA,0.0256
22,ATGGGGGA,-0.145
23,GACTCATC,0.452
24,CAGGTGCC,-0.0882
25,ACGCACGG,-0.0194

row,Sequence,PBM E-score
1,ATTCGGTA,-0.172
2,AAACCTAA,-0.0619
3,ACAGGAAG,-0.0557
4,GAAGAACA,-0.00385
5,GAAGATTA,0.123
6,AACGAATT,-0.114
7,TCATCACA,0.123
8,ACACAGCT,0.127
9,TAGGTGCA,-0.0582
10,CCAACAAA,0.0426
11,CCGCTTTA,-0.16
12,GCCCGAAA,-0.0862
13,ATAGATTA,0.0342
14,CATCGCAG,0.124
15,GCCGTCCA,-0.114
16,AGACGCTG,-0.00432
17,GGGTGTTA,0.218
18,ATGACCGC,0.108
19,CTTTCCGA,-0.198
20,CGCGAACA,0.00318
21,AATTGCTC,-0.178
22,ACTGATCA,0.172
23,CACATTCG,0.0327
24,ATTACCGA,0.115
25,AGTCCACG,0.118

row,Sequence,PBM E-score
1,ATCGGTGA,0.181
2,AGATTATC,-0.149
3,AATGCTCA,0.021
4,CCGTTATC,-0.151
5,AGCGAAGG,-0.0123
6,CTCCCTAA,-0.107
7,GACGGAGC,-0.0703
8,ACAATCAA,0.0103
9,CCCTAGCG,-0.146
10,AACGACAA,0.0611
11,AAATGATG,0.088
12,GATGAGCC,0.175
13,CACGGGTC,-0.0331
14,CGCCCCTC,0.185
15,GGATTCCA,0.193
16,GACGGTAC,-0.0962
17,CACCATGA,0.143
18,ATCACATA,0.19
19,CAGATCTA,-0.0758
20,ATGCAACG,-0.00087
21,AGGTATGA,0.163
22,ACAACGTC,-0.215
23,GGCTTCCA,-0.112
24,ATGATAAC,0.0602
25,AGCAGGCT,-0.0486

row,Sequence,PBM E-score
1,CCAGAACG,0.115
2,ACCGGTCA,-0.12
3,ATCGCCCG,0.0579
4,CTTACATC,0.00926
5,GAGACGGA,0.00065
6,TACCGTGA,0.133
7,ACTGTCAA,-0.0135
8,ATAGAGCG,-0.071
9,CTTGAGTC,0.333
10,ATGGTGCA,-0.0579
11,CTGACTTA,0.187
12,ACTTCTCT,-0.0892
13,AATTGCCC,-0.0717
14,AATGTACT,-0.0342
15,CTAGTCCC,-0.0934
16,TGACGGCA,-0.0485
17,CAACAGAC,-0.0651
18,CAGAAAAC,0.0681
19,GTCAACAC,0.131
20,ACGGCTCG,0.0898
21,CAGCTGTA,0.0408
22,CACCGGTA,0.0399

# Reference: the supplement of paper PMC3334620
